Tests used:
[1] = Single-dose pharmacokinetics of ADC molecules in cynomolgus monkeys; type: in vivo; details: 10 mg/kg, i.v.
Procedure: Cynomolgus monkeys (Suzhou Guochen Biotechnology Co., Ltd.) were grouped with 3 cynomolgus monkeys for each ADC molecule. After the ADC molecule was injected intravenously at 10 mpk (n = 3 cynomolgus monkeys/group), sera were collected at 0.083 h, 1 h, 6 h, 12 h, 24 h, 48 h, 96 h, 168 h, 240 h, 336 h, 504 h, and 672 h for bioanalytical measurements. The cynomolgus monkey serum samples were determined using an HTRF method, and the quantitative analysis of the content of the test samples was performed by a four-parameter model curve of the standard substance. Pharmacokinetic parameters were analyzed using a standard non-compartmental model of WinNonlin software (6.1). Table 15. PK of ADC molecules in cynomolgus monkeys

[2] = test system: PC-3 cells; assay: In vitro cell binding assay of ADCs; set-up: species or system human
Procedure: In this assay, fluorescence signals of the antibody on the cell surface were detected, and the binding of the antibody was evaluated according to the intensity of the fluorescence signals. […] The cells were incubated with a FITC-labeled goat anti-human IgG (H + L) secondary antibody (Jackson Immuno Research, 109-095-003) at 4 °C for 30 min, and then excess antibodies were washed off. The fluorescence signals on the cell surface were read using BD CantoII. Table 11. In vitro cell binding activity of ADCs (EC50, nM)

[3] = test system: 22RV1 cells; assay: Cell killing activity of ADC molecules (CellTiter-Glo); type: cell-based, human; details: 5 days
Procedure: (§1) LNCaP (ATCC, CRL-1740), 22RV1 (ATCC, CRL-2505), and PC-3 (ATCC, CRL-1435) cells were digested with trypsin, neutralized with a fresh medium, centrifuged at 1000 rpm, and then resuspended in a medium. After the cells were counted, the density of the cell suspensions was adjusted to […], and the cells were plated onto a 96-well plate. The adjusted cell suspension (135 µL) was added to each well with […]. Only the middle 60 wells were used for plating, and six wells in the twelfth column were taken as pure medium controls without cells. An equal volume of PBS was added to the other wells. The cells were incubated at 37 °C with 5% CO2 for 16 h.
(§2) Then 20 µL of the dilution was added to the cell plate described above, and the plate was incubated in an incubator (37 °C, 5% CO2) for 5 days. […] Subsequently, 9-point serial dilutions at a 1:3 ratio were performed with PBS. Then 1 µL of the dilution was added to 20 µL of RPMI-1640, and the mixture was transferred to a 96-well cell culture plate. The plate was incubated in an incubator (37 °C, 5% CO2) for 5 days. In the 96-well cell culture plate, 80 µL of the CellTiter-Glo reagent was added to each well, and the plate was left to stand in the dark at room temperature for 10-15 min. The chemiluminescence signal values were read on Victor3, and the data were processed using GraphPad software.
(§3) On the fifth day, the culture plate was taken out and allowed to return to room temperature. The CellTiter-Glo assay solution (75 µL) was added to each well, and the plate was left to stand in the dark at room temperature for 10 min. A Backseal membrane was attached to the bottom of the cell culture plate. The plate was placed on a microplate reader Victor 3, and luminescence signal values were read. Curve fitting was performed according to the log values of concentrations of the test compounds to the corresponding signal values using Graphpad Prism software, and IC50 values were calculated. The maximum value of killing was defined as the maximum killing rate (Imax) of the compound. The killing rate was calculated as follows: [formula]

[4] = test system: LNCaP cells; assay: as above; type: cell-based, human; details: 5 days
Procedure: as §1, §2, §3

[5] = test system: PC-3 cells; assay: as above; type: cell-based, human; details: 5 days
Procedure: as §1, §2, §3

B1: ADC-2 (conjugate)
heavy: EVKLVESGGGLVQPGGSLRLSCAASGFTFSDYYMAWVRQAPGKGLEWVANINYDGSSTYYLDSLKSRFTISRDNAKNSLYLQMNSLRAEDTAVYYCARGGDYWDAMDYWGQGTTVTVSS[sequence of human IgG1 constant region omitted]
light: DIQMTQSPSSLSASVGDRVTITCRASQDISKYLNWYQQKPGKAPKLLIYYTSSLHSGVPSRFSGSGSGTDYTLTISSLQPEDFATYYCQQGNRLPRTFGGGTKVEIKRTVAAPSVFIFPPSDEQLKSGTASVVCLLNNFYPREAKVQWKVDNALQSGNSQESVTEQDSKDSTYSLSSTLTLSKADYEKHKVYACEVTHQGLSSPVTKSFNRGEC
[1]; intact ADC
  AUC 0-t Intact ADC: 19078 µg·h/mL
[1]; ratio
  AUC 0-t Intact ADC/TAb: 102%
[1]; total antibody
  AUC 0-t TAb: 18691 µg·h/mL
[2]
  In vitro cell binding activity of ADCs (EC50): No binding
[3]
  Imax (maximum killing rate): 98.03%
[4]
  Imax (maximum killing rate): 94.91%
[5]
  Imax (maximum killing rate): 90.73%
[5]; read-out: IC50 (killing effect)
  IC50: 119 nM

Reference: EP4755403A1, “ANTI-PSMA ANTIBODY-DRUG CONJUGATE AND PHARMACEUTICAL USE THEREOF” (priority 2023, dated 2025)
